# Results as given in PubChem BioAssay AID1030 (National Center for Advancing Translational Sciences (NCATS), 2008).
# Where “and” joins values, the source holds several entries; their conditions need not be identical. Identical values can stand only once. Screen size: about 220,000 compounds; about 16,000 (7.3%) were called active. Inconclusive means that the source gave no clear call. Such entries were picked first, then a sample of the others. The call rests on the fitted dose curve; in most records, active means well fitted inhibition curve with a large enough effect (not every such curve was filed as active); inconclusive means small, poorly fitted or top-dose-only effect, or another doubt; inactive means no such curve, though single readings can be large or run the other way. A potency beside an inconclusive call is a rough fit, not a confirmed value.
# Target: Aldehyde dehydrogenase 1A1 (Homo sapiens) (UniProt P00352)
# Assay: qHTS Assay for Inhibitors of Aldehyde Dehydrogenase 1 (ALDH1A1);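 on activity, negative = inhibition: plate controls were no enzyme wells and a reference inhibitor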
# Conditions: Purified ALDH1A1, NADH fluorescence, propionaldehyde substrate; series mostly up to 75.3 µM; activity, negative = inhibition: at the top concentration
# Potency means the concentration at half of the fitted maximal effect; tags describe the fitted curve by direction and shape.
# Chain of UniProt P00352 (P00352 whole entry, looked up): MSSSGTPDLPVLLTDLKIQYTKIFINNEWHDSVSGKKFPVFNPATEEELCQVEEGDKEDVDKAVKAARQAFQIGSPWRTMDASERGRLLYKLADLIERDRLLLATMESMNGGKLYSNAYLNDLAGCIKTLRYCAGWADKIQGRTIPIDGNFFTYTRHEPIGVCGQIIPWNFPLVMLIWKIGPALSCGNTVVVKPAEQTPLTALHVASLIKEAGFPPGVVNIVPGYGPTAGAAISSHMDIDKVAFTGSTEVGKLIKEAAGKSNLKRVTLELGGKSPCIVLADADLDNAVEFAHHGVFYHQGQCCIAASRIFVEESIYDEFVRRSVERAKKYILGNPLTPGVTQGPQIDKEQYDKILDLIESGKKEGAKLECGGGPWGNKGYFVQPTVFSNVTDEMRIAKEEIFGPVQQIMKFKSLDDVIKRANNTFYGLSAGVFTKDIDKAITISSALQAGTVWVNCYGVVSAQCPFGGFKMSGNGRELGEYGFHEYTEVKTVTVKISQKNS
Compound,Potency,"activity, negative = inhibition"
O=C(CSCc1c(F)cccc1Cl)NCc1cccnc1,"inconclusive: 14.1 µM [inhibitor, partial curve]",
Cc1cc(C)c(S(=O)(=O)N2CCN(CCN3C(=O)c4cccc5cccc(c45)C3=O)CC2)cc1[N+](=O)[O-],"inconclusive: 39.8 µM [inhibitor, single point]",
CC/C(O)=C1\C(=O)CC(c2ccccc2)CC1=NC(C)C (configuration not stated),,inactive: -6.79%
CNC(=S)N/N=C(\C)c1cccc([N+](=O)[O-])c1,active: 12.6 µM,
CC(NS(=O)(=O)c1ccccc1)C(=O)NCc1ccco1 (configuration not stated),active: 23.8 µM,
CCOc1ccc2nc(N3CCC(C(=O)N4CCN(C(=O)c5ccco5)CC4)CC3)sc2c1,active: 15.8 µM,
Cc1csc(NC(=O)CSc2nnc(-c3ccco3)n2C)n1,"inconclusive: 39.8 µM [inhibitor, single point]",
COc1cccc(C(=O)N(Cc2cc3cc(C)ccc3[nH]c2=O)CC2CCCO2)c1 (configuration not stated),"inconclusive: 28.2 µM [inhibitor, partial curve]",
CCCc1cc(-c2n[nH]c(=S)n2CC(C)C)cs1,active: 11.2 µM,
O=C(COC(=O)c1ccccc1F)c1ccc(-n2nncc2-c2ccco2)cc1,"inconclusive: 39.8 µM [inhibitor, single point]",
O=C(c1cccs1)N(c1ccc(Cl)cc1)C1C=CS(=O)(=O)C1 (configuration not stated),,inactive: 0.562%
Nc1cc(-c2ccc(Br)cc2)nc2cc(-c3ccccc3)nn12,"inconclusive: 39.8 µM [inhibitor, single point]",
O=C(CSCC(=O)N1CCCc2ccccc21)Nc1nc(-c2ccccc2)cs1,"inconclusive: 15.8 µM [inhibitor, partial curve]",
O=C(N[C@@H](c1ccccc1)[C@@H]1C[C@H]1C(=O)O)OCc1ccccc1,"inconclusive: 22.4 µM [inhibitor, partial curve] and inconclusive: 39.8 µM [inhibitor, single point]",
O=C(CN1C2CCCC1CC(NC(=O)c1ccccc1)C2)Nc1nccs1 (configuration not stated),"inconclusive: 39.8 µM [inhibitor, single point]",
CC1=NN(C(N)=S)C(=O)C1N=Nc1ccccc1C (configuration not stated),active: 5.01 µM,
Oc1ccc(/C=N/N(Cc2ccccc2)c2ccccc2)c(O)c1O,active: 10 µM,
COC(=O)[C@H]1C[C@@H]2CC[C@@H](O)C[C@@H]2N1Cc1c(F)cccc1Cl,,inactive: -1.11%
CCCSc1nc(C)cc(C)c1S(=O)(=O)c1ccccc1C,"inconclusive: 22.4 µM [inhibitor, single point]",
Cc1c(C#N)c(NC(=O)c2cccc(Cl)c2)n(Cc2ccccc2)c1C,"inconclusive: 39.8 µM [inhibitor, single point]",
CC(=O)OCC(=O)[C@@]1(O)[C@H](C)C[C@@H]2[C@H]3CCC4=CC(=O)C=C[C@]4(C)[C@]3(F)[C@@H](O)C[C@@]21C,,inactive: -1.78% [at 20.9 µM]
COc1c(C)cc(C(=O)C2CCCN(C(=O)c3snnc3C)C2)cc1C (configuration not stated),"inconclusive: 25.1 µM [inhibitor, single point]",
O=C(COC(=O)CCC(=O)Nc1nccs1)NCc1ccco1,,inactive: 10.4%
COc1ccc2cc3cc(C(=O)NCc4ccc5c(c4)OCO5)oc3nc2c1,"inconclusive: 31.6 µM [inhibitor, partial curve]",

Compound,Potency,"activity, negative = inhibition"
CCOc1ccc(S(=O)(=O)Nc2cccc(OC)c2)cc1,"inconclusive: 20 µM [inhibitor, partial curve]",
Cc1ccccc1NC(=O)CCN1CCN(Cc2ccccc2)CC1,"inconclusive: 44.7 µM [inhibitor, single point]",
COc1ccc2c(c1OC)C(=O)N(c1ncn[nH]1)C2,"inconclusive: 28.2 µM [inhibitor, partial curve]",
N#Cc1c(OCC(=O)c2ccccc2)nc2c(c1-c1ccco1)CCc1ccccc1-2,"inconclusive: 22.4 µM [inhibitor, partial curve]",
Cc1cc(OC(=O)c2ccco2)c(Sc2ccccc2[N+](=O)[O-])c(=O)o1,"inconclusive: 31.6 µM [inhibitor, single point]",
CCN(CC)CCCNC(=O)/C=C/C(=O)O,"inconclusive: 39.8 µM [inhibitor, single point]",
CC1=NN(c2ccc(F)cc2)C(=O)C1C(c1cccc(O)c1)c1c(C)[nH]n(-c2ccc(F)cc2)c1=O (configuration not stated),active: 8.91 µM,
COc1ccc(C(=O)Oc2cccnc2)cc1OC,active: 10 µM,
CC(C)COC(=O)c1ccc2c(c1O)C(=O)c1ccccc1C2=O,"inconclusive: 17.8 µM [inhibitor, partial curve]",
O=C(Cc1ccccc1)Nc1ccccc1N1CCN(c2ccccc2)CC1,"inconclusive: 28.2 µM [inhibitor, single point]",
Cc1ccc(-n2c(C)cc(C(=O)CN3CCOCC3)c2C)cc1C,,inactive: 8.6%
CCOC(=O)C(C)Oc1cccc2c(=O)n(CC(=O)N3CCN(C(=O)OCC)CC3)ccc12 (configuration not stated),"inconclusive: 28.2 µM [inhibitor, single point]",
CC1CN(S(=O)(=O)c2ccc(C(=O)NCCCn3ccnc3)cc2)CC(C)O1 (configuration not stated),"inconclusive: 44.7 µM [inhibitor, single point]",
CCN(CC)CCNC(C(=O)Nc1cccc(C(C)=O)c1)c1ccccc1 (configuration not stated),active: 14.1 µM,
Cc1oc2c(cc(NS(=O)(=O)c3ccc4c5c(cccc35)C(=O)N4)c3ccccc32)c1C(=O)OC(C)C,"inconclusive: 12.6 µM [inhibitor, single point]",
O=C(CNC(=O)c1cccs1)N/N=C/c1ccco1,,inactive: -14.8%
O=C1CC(CCC(=O)NC2CC2)c2ccccc2N1 (configuration not stated),,inactive: -6%
CC(C)(C)CC(C)(C)NC(=O)CSCC(=O)Nc1ccc2ccccc2c1,"inconclusive: 17.8 µM [inhibitor, partial curve]",
COc1ccc(-c2nn(C)c(=O)c3ccccc23)cc1NC(=O)COc1ccc(C)cc1,"inconclusive: 12.6 µM [inhibitor, partial curve]",
CCCc1nc(SCC(=O)Nc2cc(C)on2)c2ccccc2n1,,inactive: -6.66%
O=C(NCCC1=CCCCC1)C(=O)NCc1ccccc1Cl,,inactive: 7.05%
CCOC(=O)c1cnc(SCc2nc(N)nc(Nc3ccc(OC)cc3)n2)nc1N,,inactive: 8.96%
CC(=O)N(Cc1cc2ccc(C)c(C)c2n2nnnc12)C1CCCC1,"inconclusive: 7.94 µM [inhibitor, single point]",
CC(C)OCc1c(C(=O)Nc2nccs2)oc2ccccc12,,inactive: -6.85%

Compound,Potency,"activity, negative = inhibition"
CCN(CC)S(=O)(=O)c1ccc(NC(=S)NC(=O)C(C)C)cc1,active: 28.2 µM,
C=CCN=C1CCCc2c1[nH]c1ccc(C)cc21,"inconclusive: 35.5 µM [inhibitor, single point]",
Cc1ccc(-c2cc(C(F)F)n3ncc(C(=O)Nc4c(C)nn(Cc5ccccc5Cl)c4C)c3n2)cc1,,inactive: 11.6%
CCOC(=O)N1N=C(c2ccccc2)CC1(O)C(F)(F)F (configuration not stated),,inactive: 1.89%
CCC(=O)Nc1cccc(NC(=S)NC(=O)Cc2ccccc2)c1,"inconclusive: 20 µM [inhibitor, partial curve]",
CN(C[C@H](Cc1ccccc1)N(C[C@@H](Cc1cccc2ccccc12)N(CCc1ccccc1)N=O)N=O)N=O,"inconclusive: 3.98 µM [inhibitor, full curve]",
C=CS(=O)c1sc(Cl)c(N2CCOCC2)c1[N+](=O)[O-] (configuration not stated),active: 2 µM,
O=C(Nc1ccccc1C(=O)N1CCCCC1)NC1CCCCC1,,inactive: 6.68%
O=C1CCCN1CCCNC(=S)Nc1ccc(Nc2ccccc2)cc1,active: 14.1 µM,
CCn1nc(C)c(NC(=O)CCCSc2nc(-c3ccco3)cc(C(F)(F)F)n2)c1C,"inconclusive: 39.8 µM [inhibitor, single point]",
CC(C)(C)n1nnnc1C(c1cc2cc3c(cc2[nH]c1=O)OCO3)N1CCN(c2ccccc2)CC1 (configuration not stated),"inconclusive: 31.6 µM [inhibitor, partial curve]",
O=C1CC(SCc2nc3ccccc3[nH]2)C(=O)N1c1ccc(F)cc1 (configuration not stated),active: 28.2 µM,
Clc1cccc(-c2ccc(/C=N/n3cnnc3)o2)c1,,inactive: -3.6%
O=C(NC(=S)Nc1ccc(CN2CCCCC2)cc1)c1cccc(OCc2ccccc2)c1,"inconclusive: 28.2 µM [inhibitor, single point]",
COc1ccc(-c2cc(-c3nnc(COC(=O)c4ccc(O)cc4)o3)c3ccccc3n2)cc1OC,"inconclusive: 22.4 µM [inhibitor, single point]",
N#CC1=C(N)S[C@H](C(=O)C23CC4CC(CC(C4)C2)C3)[C@H]1c1ccncc1,"inconclusive: 25.1 µM [inhibitor, partial curve]",
COc1ccc(CN2CCc3cc(OC)c(OC)cc3C2)cc1O,,inactive: -10.8%
Cc1ccc(/C(=N\O)c2oc3c(C)c4oc(=O)cc(C)c4cc3c2C)cc1,"inconclusive: 37.7 µM [inhibitor, single point]",
CC(=O)Nc1ccc(-c2csc(NC(=O)c3ccc(C)o3)n2)cc1,"inconclusive: 37.7 µM [inhibitor, single point]",
CCN(CC)S(=O)(=O)c1ccc2nc(NC(=O)c3cccs3)sc2c1,"inconclusive: 25.1 µM [inhibitor, partial curve]",
CCOc1ccc2ccccc2c1/C=N/n1cncn1,"inconclusive: 8.91 µM [inhibitor, single point]",
C=C(C(=O)O)C(CCCCCC)C(=O)O (configuration not stated),,inactive: -4.29%
Cc1ccc2[nH]c3c(N4CCOCC4)ncnc3c2c1,"inconclusive: 28.2 µM [inhibitor, partial curve]",
CC(C)(C)n1ncc2c(=O)n(CC(=O)OCc3ccccc3)cnc21,,inactive: -15.4%
